In article PMC6451091:
Some of the results follow. Measured with an extract: partners may take part in the binding.

These sequences were tested against T1, FLI1 (endogenous, THP-1 nuclear extract) (UniProt Q01543) (assay: nuclear extract protein-binding microarray (nextPBM)). Conditions: 20 mM HEPES pH 7.9, 100 mM NaCl, 1 mM DTT, 0.2 mg/mL BSA, 0.02% Triton X-100, 2% milk, 0.4 mg/mL salmon testes DNA; 1 h; temperature not stated; high values mean tight binding; double strand, one strand shown; sequences stand for … in GCCTAGCAC…GTGCTAGGTCTTGATTCGCTTGACGCTGCTG.
T1 sequence: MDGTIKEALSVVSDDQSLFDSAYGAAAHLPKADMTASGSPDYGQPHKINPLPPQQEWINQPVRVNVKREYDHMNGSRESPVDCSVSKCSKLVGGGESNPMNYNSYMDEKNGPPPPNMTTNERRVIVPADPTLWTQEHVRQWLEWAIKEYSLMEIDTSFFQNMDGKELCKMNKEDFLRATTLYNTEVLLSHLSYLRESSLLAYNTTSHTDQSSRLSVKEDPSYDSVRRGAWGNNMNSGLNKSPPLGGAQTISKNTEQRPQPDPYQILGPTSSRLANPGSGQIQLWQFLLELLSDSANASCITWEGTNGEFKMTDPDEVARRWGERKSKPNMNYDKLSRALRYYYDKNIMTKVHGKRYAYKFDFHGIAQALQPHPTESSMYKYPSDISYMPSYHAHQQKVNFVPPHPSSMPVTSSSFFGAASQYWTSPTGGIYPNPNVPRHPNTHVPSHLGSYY
With CAAATGAGGAAGTGGCAGCT the binding signal was 4.27 z-score.
TTTAAAGGGAAGTGAACTAC gave a binding signal of 1.74 z-score.
TAAATGAGGAAGTGACAGCT showed a binding signal of 3.23 z-score.
GGGAAGGGGAAGTGGCAGGG was tested, and the binding signal was 2.55 z-score.
Sequence GCAATGGGGAAGTGGCCATT has a binding signal of 2.33 z-score.
Sequence CGAAAGGGGATGTGCTAAAC has a binding signal of 1.09 z-score.
GAAAAGAGGAAGTCAAAATA showed a binding signal of 4.12 z-score.
CGGGAGAGGAAGTGACCCAT was tested, and the binding signal was 2.95 z-score.
Sequence GGTGACAGGAAGTCCTGGGG has a binding signal of 4.23 z-score.
With AAAAGAAGGAAGTGTCCAGT the binding signal was 2.18 z-score.
CAAAACAGGAAGTGATTCAT showed a binding signal of 5.67 z-score.
With AAAAACAGGAAGTCCTATTC the binding signal was 5.02 z-score.
TAAATGAGGAAGTGAAGGCT showed a binding signal of 3.48 z-score.
GAAATGGGGAAGTGCTTCAA was tested, and the binding signal was 2.77 z-score.
CAAAAAGGGAAGTCGATGCT showed a binding signal of 2.86 z-score.
AAAAAACGGAACTGGCTAGA showed a binding signal of 2.14 z-score.
Work on CGCAAGGGGAAGTGCTAAAC yielded a binding signal of 2.15 z-score.
AAAAGGAGGAAGCGGTGAGC showed a binding signal of 2.06 z-score.
Sequence GAAAGGAGGAAGTCAGAGTG has a binding signal of 2.78 z-score.
Sequence AATAGGAGGAAGTGGCAAGT has a binding signal of 2.91 z-score.
With AAAATGAGGAAGTCATTCTT the binding signal was 4.39 z-score.
With ATGGAGAGGAAGTGGCAGAG the binding signal was 3.13 z-score.
Sequence GGGAACAGGAACTGAGACAT has a binding signal of 2.13 z-score.
Work on CTTGAGAGGAAGTGGGAAAA yielded a binding signal of 2.74 z-score.
In the case of GCTAAGAGGAAGTCCTCTGT, the binding signal is reported as 2.54 z-score.
Sequence CAGAAAAGGAAGTGGCCCAG has a binding signal of 2.4 z-score.
For TAAAAGAGGAAGAGGAAGAA, the binding signal was 2.97 z-score.
ACTAGGAGGAAGTGGGAAAC showed a binding signal of 2.82 z-score.
Work on AAAATGAGGAACTGGAACTA yielded a binding signal of 3.04 z-score.
Work on TAAAGGAGGAAGTGGCTTAG yielded a binding signal of 3.28 z-score.
Work on CAAAAGAGGAACTGCTTTTT yielded a binding signal of 2.58 z-score.
For GTAAACAGGAAGTCCCATAG, the binding signal was 4.86 z-score.
AGGATGAGGAACTGTTGATG showed a binding signal of 1.53 z-score.
Sequence GCTAAAAGGAAGTGTCAAGT has a binding signal of 2.25 z-score.
AGTAAAGGGAAGTGAAAAGA was tested, and the binding signal was 1.82 z-score.
Sequence CAGAGAAGGAAGTGTGGTCT has a binding signal of 1.98 z-score.
Sequence CAAAAAAGGAAGTGGCTGTG has a binding signal of 3 z-score.
AAGAAGAGGAAGTGAGTGCT was tested, and the binding signal was 4.3 z-score.
With AGTATGGGGAAGTGTTTAGG the binding signal was 1.8 z-score.
In the case of ATATTAAGGAAGTGCTGTGG, the binding signal is reported as 2.2 z-score.
